Measurements from PubChem BioAssay AID686979 (National Center for Advancing Translational Sciences (NCATS), 2013).
Hit rate of the full screen: of about 420,000 compounds, about 50,000 (12%) were called active. Inconclusive results, whose numbers are uncertain, are shown with a selection of clear calls. Calls follow the shape of the dose curve; as a rule, active = well fitted inhibition curve with a large enough effect; inconclusive = small, poorly fitted or top-dose-only effect; inactive = flat fitted curve, though single readings scatter. Potencies of inconclusive entries are left out as doubtful fits.

Test: qHTS for Inhibitors of human tyrosyl-DNA phosphodiesterase 1 (TDP1): qHTS in cells in presence of CPT; also: nearly all actives have a fitted effect of over 55% in size
Settings: chicken DT40 Tdp1-/-;hTDP1 cells + 20 nM CPT, ATP luminescence, 48 h; activity change, negative = growth inhibition: at 46.2 µM (top of the series) unless noted
Method in brief: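 Chicken DT40 Tdp1-/- cells complemented with human TDP1, 400 cells/well, exposed to compounds plus 20 nM camptothecin for at least 48 h at 37 C; viability read as ATP content by CellTiter-Glo luminescence.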
% is scaled to controls: 0 for no effect and ±100 for the full control effect; potency is read from the fitted curve at half-maximal effect; tags tell the direction and shape of the fitted curve.

Row | Compound | Potency | activity change, negative = growth inhibition
1 | COc1ccc(C)cc1NC(=O)c1ccc([N+](=O)[O-])cc1[N+](=O)[O-] | inconclusive [inhibitor, partial curve] | –
2 | CC(=O)NNC(=O)c1cc2c3ccccc3n(C)c2s1 | inactive | –
3 | COC(=O)C1CCN(S(=O)(=O)c2ccc(N3CCCCS3(=O)=O)cc2)CC1 | inactive | –
4 | COc1cccc(NC(=O)C2CCCN(S(=O)(=O)c3cccc4cccnc34)C2)c1 (stereo not given) | inconclusive [inhibitor, single point] | –
5 | Cc1ccc2[nH]c3c(c2c1)CNCC3 | inactive | –
6 | C=C(C)Cn1c(=S)[nH]c2ccccc2c1=O | inconclusive [inhibitor, single point] | –
7 | Cc1ccc(-c2noc(CCC(=O)NCCc3ccccc3Cl)n2)cc1 | inconclusive [inhibitor, single point] | –
8 | Cc1cccc(C(=O)OC(C)C(=O)N2CCN(Cc3ccccc3)CC2)c1 (stereo not given) | inconclusive [inhibitor, single point] | –
9 | CN1CCC(=C(c2ccccc2)c2ccc(Br)cc2)CC1 | inconclusive [inhibitor, single point] | –
10 | Cc1ccc(N(CCC#N)C(=O)COC(=O)c2cc(C)oc2C)cc1 | inconclusive [inhibitor, single point] | –
11 | O=C(CCC1CCCCC1)NCCS(=O)(=O)N1CCN(c2ccccc2)CC1 | inconclusive [inhibitor, partial curve, poor fit] | –
12 | Cn1nc(-c2ccccc2)c(CO)c1Oc1ccc(F)cc1 | inconclusive [inhibitor, single point] | –
13 | COc1ccc(CCN2C(=O)c3[nH]nc(-c4ccccc4O)c3C2c2ccc(OC)c(OC)c2)cc1 (stereo not given) | inactive | –
14 | CCOC(=O)c1c(NC(=O)CSc2cn(CCNC(=O)c3c(F)cccc3F)c3ccccc23)sc2c1CCC2 | inconclusive [inhibitor, full curve] | –
15 | O=C(CCn1nc(-c2ccc(Cl)cc2)ccc1=O)NCCc1ccccc1 | inconclusive [inhibitor, single point] | –
16 | CC(=O)Nc1c(C)nn(-c2ccccc2)c1N1CCC(C(=O)NCc2ccccc2Cl)CC1 | inconclusive [inhibitor, single point] | –
17 | CN(C)S(=O)(=O)c1ccc2c(c1)/C(=C/c1cc3c([nH]1)CCCC3)C(=O)N2 | active: 4.61 µM | –
18 | O=C(CCCSc1ccc(Cl)cc1)Nc1cc(S(=O)(=O)N2CCOCC2)ccc1O | active: 18.4 µM | –
19 | O=[N+]([O-])c1ccc(O)c(/C=N/n2c(CO)nc3ccccc32)c1 | inactive | –
20 | CCC1CCCCN1C(=S)NCc1ccccc1 (stereo not given) | inconclusive [inhibitor, single point] | –
21 | Cn1c(=O)c2c(ncn2CC(COCc2ccccc2)OCc2ccccc2)n(C)c1=O (stereo not given) | inconclusive [inhibitor, single point] | –
22 | Cc1cc(C)cc(Oc2ccc(S(=O)(=O)N3CCN(C)CC3)cn2)c1 | inactive | –
23 | Cc1ccc(C)c(S(=O)(=O)NC(C)CCc2ccccc2)c1 (stereo not given) | inconclusive [inhibitor, single point] | –
24 | C[C@H](NC(=O)c1[nH]cnc1C(=O)Nc1ccc(CNC(=O)OC(C)(C)C)cc1)C(=O)OCc1ccccc1 | inconclusive [inhibitor, single point] | –

Row | Compound | Potency | activity change, negative = growth inhibition
25 | CC1(C)CC(=O)C2=C(C1)NC1=C(C(=O)c3ccccc31)C2c1ccc(Cl)cc1 (stereo not given) | inconclusive [inhibitor, single point] | –
26 | Cn1cccc1C(=O)N1CCC2(CCN(C(=O)Nc3ccccc3)CC2)CC1 | inconclusive [inhibitor, single point] | –
27 | CC(c1ccco1)N(C(=O)CSc1ccc(Br)cc1)c1ccccn1 (stereo not given) | inconclusive [inhibitor, partial curve, poor fit] | –
28 | COc1ccc(C)cc1N1CC(C(=O)Nc2ccccc2N2CCCCC2)CC1=O (stereo not given) | inconclusive [inhibitor, single point] | –
29 | C=CCc1cccc(/C=N/NC(=O)CNc2ccccc2)c1O | active: 20.6 µM | –
30 | C/C(=N\NC(=O)c1ccc(F)cc1)c1cccc(NC(=O)c2cccc(F)c2)c1 | inconclusive [inhibitor, partial curve] | –
31 | Cc1c(C(=O)NCc2ccc(C(F)(F)F)cc2)sc(=O)n1Cc1ccc(S(=O)(=O)N(C)C)cc1 | active: 23.1 µM | –
32 | COc1ccc(OC)c(S(=O)(=O)n2c([N+](=O)[O-])cnc2C)c1 | inactive | –
33 | Cc1cc2c(cc1S(=O)(=O)NC1CCCCC1C)OCC(=O)N2 (stereo not given) | inconclusive [inhibitor, single point] | –
34 | COc1ccc(C(=O)N2c3cc4c(cc3C(C)=CC2(C)C)OCO4)cc1 | inconclusive [inhibitor, single point] | –
35 | COC(=O)C[C@@H]1C=C[C@H](NC(=O)c2cnccn2)[C@@H](CO)O1 | inactive | –
36 | CCCN1C(=O)c2ccccc2NC1c1ccc(Cl)c(Cl)c1 (stereo not given) | inconclusive [inhibitor, single point] | –
37 | CCOC(=O)C1=C(CS(=O)(=O)c2ccc(OC)c(Cl)c2)NC(=O)NC1c1cccc(OC)c1 (stereo not given) | inconclusive [inhibitor, partial curve] | –
38 | Cc1cccc(NC(=O)c2sc3nc4c(c(-c5ccco5)c3c2N)CCC4)c1 | inconclusive [inhibitor, single point] | –
39 | COc1cccc(CC(=O)Nc2ccc(-c3csc(C)n3)cc2)c1 | inactive | –
40 | COc1ccc(-c2cc(-c3ccccc3)nc(SCC(=O)Nc3ccccc3F)c2C#N)cc1 | inconclusive [inhibitor, single point] | –
41 | CCN1C(=O)/C(=C\c2nc3ccccc3c(=O)n2CC)c2ccccc21 | active: 16.4 µM | –
42 | CCOc1ccc(-n2c(SCC(N)=O)nc3c(oc4ccccc43)c2=O)cc1 | inconclusive [inhibitor, single point] | –
43 | O=C(COC(=O)c1ccccn1)Nc1cc(Cl)ccc1Cl | inactive | –
44 | COC(=O)C1(Cc2cc(-c3ccccc3)no2)CCN(C(=O)OC(C)(C)C)CC1 | inconclusive [inhibitor, single point] | –
45 | NC(=O)COc1ccccc1C(=O)Nc1ccccc1 | inactive | –
46 | CCc1ccc(CCC(=O)Nc2sc(C)c(C)c2C(=O)OC)o1 | – | inconclusive: -31.4% [inhibitor]
47 | O=C(CSc1cn(CCNC(=O)c2ccccc2F)c2ccccc12)NCC1CCCO1 (stereo not given) | inconclusive [inhibitor, single point] | –
48 | COCC(=O)N/N=C\c1ccc(OC/C=C/c2ccccc2)c(OC)c1 | inconclusive [inhibitor, single point] | –

Row | Compound | Potency | activity change, negative = growth inhibition
49 | COc1ccc2[nH]cc(CCNc3ccnc(-c4cccc(C#N)c4)n3)c2c1 | inconclusive [inhibitor, single point] | –
50 | Cc1cc(C)cc(N2C(=O)CSC2c2ccccn2)c1 (stereo not given) | inactive | –
51 | CC(C)c1ccc(/C=C/C(=O)NC(=S)Nc2ccc(CN3CCOCC3)cc2)cc1 | active: 9.2 µM | –
52 | Cc1nnc(C)n1/N=C/c1cc2ccccc2nc1Cl | active: 2.59 µM | –
53 | Cc1onc(-c2ccccc2Cl)c1C(=O)N1CCN(c2ccccc2)CC1 | – | inconclusive: -35.6% [inhibitor]
54 | Cc1ccc(S(=O)(=O)N2CCC(=O)N([C@H](COCc3cccc(Cl)c3)Cc3ccccc3)CC2)cc1 | inconclusive [inhibitor, single point] | –
55 | CC(C)CN(C)Cc1c(C(=O)N2CCc3ccccc3C2)nc2ccc(Cl)cn12 | active: 18.4 µM | –
56 | CC(C)(c1ccccc1)c1ccc(OCCN)cc1 | active: 18.4 µM | –
57 | Oc1ccc(C[C@H]2CN([C@@H](Cc3cccc(O)c3)CN3CCC[C@@H]3CN3C(=S)NC[C@@H]3Cc3ccccc3)C(=S)N2CC2CCCCC2)cc1 | active: 3.66 µM | –
58 | Cc1cccc(NC(=O)CN2CCCN(S(=O)(=O)c3ccc(Br)s3)CC2)c1 | inconclusive [inhibitor, single point] | –
59 | C#CCOCCOCCOCCNc1nc(N2CCN(C(=O)[C@H](CC(N)=O)n3cc(C(N)[C@H](C)CC)nn3)CC2)nc(N2CCN(C(=O)[C@H](CC(N)=O)n3cc(C(N)[C@@H](C)CC)nn3)CC2)n1 (stereo not given in full) | inactive | –
60 | COc1ccc(C(=O)Nc2ccc3c(c2)CCCN3S(=O)(=O)c2ccc(C)cc2)c(OC)c1 | active: 5.8 µM | –
61 | O=C(c1cc(-c2ccncc2)nc2ccccc12)N1CCN(Cc2ccccc2)CC1 | active: 20.6 µM | –
62 | CC(C)c1cc(Cn2c3ccccc3c(=O)n2C(C)Cn2cc(COc3ccccc3)nn2)on1 (stereo not given) | inconclusive [inhibitor, single point] | –
63 | Cc1nc(-c2ccccc2)sc1C(=O)/C=C/c1ccccc1 | active: 23.1 µM | –
64 | COc1ccc(NC(=O)c2cccnc2Nc2ccc(OC)cc2)cc1 | active: 16.4 µM | –
65 | CCCc1[nH]nc2c1C1(CCN(C(=O)OCc3ccccc3)CC1)C(C#N)=C(N)O2 | active: 20.6 µM | –
66 | Cc1cccc(CSc2cccc3cccnc23)c1 | active: 4.11 µM | –
67 | COc1ccc(NC(=O)/C(C#N)=C/c2c(C)nn(-c3ccc(F)cc3)c2Cl)cc1Cl | inconclusive [inhibitor, single point] | –
68 | COc1ccc2c(c1)CC/C(=C\c1ccc(OC)c(Cn3cccn3)c1)C2=O | active: 18.4 µM | –
69 | Cc1ccccc1NC(=O)COC(=O)COc1ccc2c(c1)CCC2 | inactive | –
70 | CCCn1c2c(c(O)c(C(=O)Nc3ccccc3)c1=O)CCCC2 | inactive | –
